From publication PMC4336329 (PLoS ONE, 2015)
About 2,200 (0.71%) of roughly 310,000 compounds showed an effect of 50% or more. Effects have a minus sign here. The list shows a part of the results.

The compounds below were run against human ether-à-go-go-related gene (hERG) potassium channel (human, UniProt Q12809) (assay: primary screen, population patch clamp on CHO cells stably expressing hERG).
human ether-à-go-go-related gene (hERG) potassium channel, sequence (Q12809 whole entry, looked up): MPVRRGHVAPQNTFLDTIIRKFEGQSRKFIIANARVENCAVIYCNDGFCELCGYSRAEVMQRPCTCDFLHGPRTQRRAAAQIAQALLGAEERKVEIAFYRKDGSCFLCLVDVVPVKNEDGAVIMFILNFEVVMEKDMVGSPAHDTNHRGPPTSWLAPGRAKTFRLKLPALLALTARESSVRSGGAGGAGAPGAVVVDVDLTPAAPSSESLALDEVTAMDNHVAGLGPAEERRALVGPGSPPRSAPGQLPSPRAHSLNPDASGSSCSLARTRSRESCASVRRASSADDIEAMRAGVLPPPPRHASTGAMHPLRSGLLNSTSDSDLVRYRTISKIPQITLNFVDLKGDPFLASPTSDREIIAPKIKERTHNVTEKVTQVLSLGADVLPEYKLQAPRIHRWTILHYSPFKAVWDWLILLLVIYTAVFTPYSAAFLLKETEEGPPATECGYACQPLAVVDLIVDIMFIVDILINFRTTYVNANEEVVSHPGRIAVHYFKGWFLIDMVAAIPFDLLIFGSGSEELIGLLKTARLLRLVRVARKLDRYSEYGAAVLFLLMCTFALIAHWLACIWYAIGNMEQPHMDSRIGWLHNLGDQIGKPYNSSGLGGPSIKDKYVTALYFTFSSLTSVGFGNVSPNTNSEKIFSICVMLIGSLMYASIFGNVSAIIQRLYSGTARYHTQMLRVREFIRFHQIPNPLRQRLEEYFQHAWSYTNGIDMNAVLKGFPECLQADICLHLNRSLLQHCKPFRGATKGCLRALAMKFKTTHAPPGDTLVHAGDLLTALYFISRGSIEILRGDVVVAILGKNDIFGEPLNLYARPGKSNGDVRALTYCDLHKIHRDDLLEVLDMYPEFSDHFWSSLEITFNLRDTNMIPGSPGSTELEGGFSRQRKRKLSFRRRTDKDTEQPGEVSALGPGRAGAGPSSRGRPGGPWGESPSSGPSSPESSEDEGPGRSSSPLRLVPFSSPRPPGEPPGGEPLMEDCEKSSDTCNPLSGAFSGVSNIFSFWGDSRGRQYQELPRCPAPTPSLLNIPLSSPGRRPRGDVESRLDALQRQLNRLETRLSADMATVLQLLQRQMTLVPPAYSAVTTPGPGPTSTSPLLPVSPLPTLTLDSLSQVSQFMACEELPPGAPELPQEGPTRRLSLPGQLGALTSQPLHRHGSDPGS
For `CC(=O)Nc1sc2c(c1C#N)CCC(C)C2` (centres unmarked), the “hERG current change (%, negative = inhibition) at 1uM” value was 11.7%. `COc1cccc(C2NC(=O)CCC2[N+](=O)[O-])c1OC` (centres unmarked) was tested, and the “hERG current change (%, negative = inhibition) at 1uM” value was 10%. `Cc1nn2c(=O)cc(CSc3ccccc3NC(=O)c3ccccc3F)nc2s1` was tested, and the “hERG current change (%, negative = inhibition) at 1uM” value was 15.2%. For `CCOC(=O)C(=O)NN=C(c1ccccc1)c1ccccc1`, the “hERG current change (%, negative = inhibition) at 1uM” value was 12.2%. In the case of `CCCn1c(O)c(N=NC(=O)c2ccco2)c2ccccc21`, the “hERG current change (%, negative = inhibition) at 1uM” value is reported as 4.93%. `COc1ccc(CCNC(=O)c2cc([N+](=O)[O-])cc([N+](=O)[O-])c2)cc1OC` was tested, and the “hERG current change (%, negative = inhibition) at 1uM” value was 14.4%. For `O=C(O)CSCC(=O)Nc1ccc(Br)c(C(F)(F)F)c1`, the “hERG current change (%, negative = inhibition) at 1uM” value was 12.2%. In the case of `COc1ccccc1NC(=S)NC(=O)CCCOc1ccc(Cl)cc1Cl`, the “hERG current change (%, negative = inhibition) at 1uM” value is reported as 21.5%. In the case of `COc1ccc(OCC(O)CN2CCN(c3ncccn3)CC2)cc1.Cl` (centres unmarked), the “hERG current change (%, negative = inhibition) at 1uM” value is reported as 1.7%. For `COc1ccc(OC)c(S(=O)(=O)Nc2ccc3oc(C)c(C(C)=O)c3c2)c1`, the “hERG current change (%, negative = inhibition) at 1uM” value was 14.2%. With `CC(=O)Oc1ccc(N(C(C)=O)S(=O)(=O)c2ccc(C)c([N+](=O)[O-])c2)cc1` the “hERG current change (%, negative = inhibition) at 1uM” value was 7.73%. For `CC(C)(C)c1ccc(C(=O)N2CCCN(C(=O)c3ccc(C(C)(C)C)cc3)CC2)cc1`, the “hERG current change (%, negative = inhibition) at 1uM” value was 5.66%. In the case of `O=C(COc1ccccc1)N1CCN(Cc2c[nH]c3ccccc23)CC1`, the “hERG current change (%, negative = inhibition) at 1uM” value is reported as -18.1%. `Cc1ccc(Sc2ccc(C(=O)NC(C)C)cc2[N+](=O)[O-])cc1` was tested, and the “hERG current change (%, negative = inhibition) at 1uM” value was 6.1%. In the case of `CN1C(=O)C(C)(C)c2cc(S(=O)(=O)N3CCCCCC3)ccc21`, the “hERG current change (%, negative = inhibition) at 1uM” value is reported as 11.8%. With `O=c1[nH]cccc1-c1nc2ccccc2n1Cc1ccccc1F` the “hERG current change (%, negative = inhibition) at 1uM” value was 15.5%. In the case of `NC(N)=N/N=C/c1cc([N+](=O)[O-])ccc1O`, the “hERG current change (%, negative = inhibition) at 1uM” value is reported as 5.33%. In the case of `COc1ccc(N=Cc2[nH]c3ccccc3c2O)cc1`, the “hERG current change (%, negative = inhibition) at 1uM” value is reported as 10.7%. For `CCOc1cc(C2C(C(=O)OC)=C(C)N=C3SCCC(=O)N32)ccc1OC(C)=O` (centres unmarked), the “hERG current change (%, negative = inhibition) at 1uM” value was 14%. For `COc1cccc(CN(C)C(=O)CNC(=O)c2sc3ccccc3c2Cl)c1OC`, the “hERG current change (%, negative = inhibition) at 1uM” value was 6.71%. In the case of `O=C(CS(=O)(=O)c1ccccc1)N1CCN(c2ccccc2)CC1`, the “hERG current change (%, negative = inhibition) at 1uM” value is reported as 11.9%. For `Cc1ccccc1NC(=O)C1Cc2ccccc2CN1C(=O)c1ccco1` (centres unmarked), the “hERG current change (%, negative = inhibition) at 1uM” value was 7.84%. For `COc1ccccc1C(=O)Nc1cccnc1`, the “hERG current change (%, negative = inhibition) at 1uM” value was 10.9%. With `Cc1cc[n+](C2=C([O-])c3ccccc3C(=O)/C2=N\S(=O)(=O)c2cccs2)cc1C` the “hERG current change (%, negative = inhibition) at 1uM” value was 7.95%. With `CC(=O)NC1(c2ccc(F)cc2)CCN(C(=O)c2c(F)cccc2F)CC1` the “hERG current change (%, negative = inhibition) at 1uM” value was 8.22%. With `Cn1ccsc1=NC(=O)c1cccc(OC(F)F)c1` the “hERG current change (%, negative = inhibition) at 1uM” value was 4.36%. `CC(C)C(C)(NC(=O)c1cccn(Cc2ccc3c(c2)OC(F)(F)O3)c1=O)C(N)=O` (centres unmarked) was tested, and the “hERG current change (%, negative = inhibition) at 1uM” value was 1.98%. With `O=C(CCN1C(=O)c2ccccc2S1(=O)=O)Nc1cccc(F)c1` the “hERG current change (%, negative = inhibition) at 1uM” value was 11.4%. For `COc1cc(Cl)c(C)cc1NC(=O)c1ccc2c(SCC(=O)O)c3c(nc2c1)CCCC3`, the “hERG current change (%, negative = inhibition) at 1uM” value was 6.13%. With `COc1cccc(COC(=O)CCNC(=O)c2ccc(Br)cc2)c1OC` the “hERG current change (%, negative = inhibition) at 1uM” value was 10.9%. For `O=C(Nc1ccn(Cc2ccccc2F)n1)c1ccc(COc2ccc(Cl)cc2Cl)o1`, the “hERG current change (%, negative = inhibition) at 1uM” value was 17.9%. `COC(=O)c1cnn2c3c(c(C)nc12)CCCC3` was tested, and the “hERG current change (%, negative = inhibition) at 1uM” value was 9.64%. For `COC(=O)c1[nH]c2ccccc2c1NC(=O)CNC1CCCCC1`, the “hERG current change (%, negative = inhibition) at 1uM” value was 8.9%. With `O=C(NCC(c1ccco1)N1CCCCC1)c1cccc(NS(=O)(=O)c2ccc(Br)cc2)c1` (centres unmarked) the “hERG current change (%, negative = inhibition) at 1uM” value was 7.15%. For `CCN(CC)CCNC(=O)c1ccc(-n2c(C)cc3c2CCCC3=O)cc1`, the “hERG current change (%, negative = inhibition) at 1uM” value was 10.7%. In the case of `Cc1cc(-c2ccc(C)c(S(=O)(=O)NCCCN3CCN(c4ccccc4F)CC3)c2)on1`, the “hERG current change (%, negative = inhibition) at 1uM” value is reported as 13.5%. In the case of `N=C(SC1CC(=O)N(c2ccc(F)cc2)C1=O)N1N=C(c2ccccc2)CC1c1ccccc1` (centres unmarked), the “hERG current change (%, negative = inhibition) at 1uM” value is reported as 19.8%. `O=C(CNCc1ccco1)Nc1cccc(S(=O)(=O)N2CCCCC2)c1.O=C(O)C(=O)O` was tested, and the “hERG current change (%, negative = inhibition) at 1uM” value was 0.38%. `CCn1c(CC(=O)Nc2ccccc2)nnc1SCC(=O)NC1CCCC1` was tested, and the “hERG current change (%, negative = inhibition) at 1uM” value was 5.86%. For `CCn1c2c(c3cc(Cl)ccc31)CCCC2=O`, the “hERG current change (%, negative = inhibition) at 1uM” value was 9.17%. In the case of `COc1ccc(-c2nc3ccccc3o2)cc1NC(=O)CSc1ccc(Cl)cc1`, the “hERG current change (%, negative = inhibition) at 1uM” value is reported as 33.5%. For `O=c1c(Cl)c(NCCO)ncn1-c1ccccc1`, the “hERG current change (%, negative = inhibition) at 1uM” value was -0.547%. In the case of `C/C(=N/Nc1ccc([N+](=O)[O-])cc1)c1ccc(C)cc1C`, the “hERG current change (%, negative = inhibition) at 1uM” value is reported as 8.95%. In the case of `c1ccc(-c2csc(Nc3ccccn3)n2)cc1`, the “hERG current change (%, negative = inhibition) at 1uM” value is reported as 10.4%. For `S=C(Nc1cccnc1)N1CCc2ccccc21`, the “hERG current change (%, negative = inhibition) at 1uM” value was 11.5%. `CC(C)c1ccccc1OCCCCCN1CCOCC1` was tested, and the “hERG current change (%, negative = inhibition) at 1uM” value was 6.57%. In the case of `[Br-].c1ccc(C[n+]2csc3ccccc32)cc1`, the “hERG current change (%, negative = inhibition) at 1uM” value is reported as 11.5%. With `COc1cc(C(C)=O)ccc1COc1ccc(C(=O)OCC(N)=O)cc1OC` the “hERG current change (%, negative = inhibition) at 1uM” value was 4.9%. `CCOC(=O)c1cnc2ccc(C(=O)OC)cc2c1NCCc1ccc(OC)c(OC)c1` was tested, and the “hERG current change (%, negative = inhibition) at 1uM” value was 0.861%. In the case of `O=C(Nc1nc2cc3c(cc2s1)OCO3)c1ccc(N2C(=O)CCC2=O)cc1`, the “hERG current change (%, negative = inhibition) at 1uM” value is reported as 14.6%. `CC(C)=CC1C(C(=O)Nc2ccc(S(=O)(=O)N3CCOCC3)cc2)C1(C)C` (centres unmarked) was tested, and the “hERG current change (%, negative = inhibition) at 1uM” value was 7.69%. For `CCCC(CCC)C(=O)OC[N+](C)(C)CCOC(=O)C(O)(c1ccccc1)C1CCCC1.[Cl-]` (centres unmarked), the “hERG current change (%, negative = inhibition) at 1uM” value was 10.9%. In the case of `COc1ccc(Nc2nc(N)nc(CSc3n[nH]c(-c4ccccc4)n3)n2)cc1`, the “hERG current change (%, negative = inhibition) at 1uM” value is reported as -0.95%. For `CCOc1ccc(N2C(=O)CC(N(CCc3ccc(OC)cc3)C(=O)c3cccc(F)c3)C2=O)cc1` (centres unmarked), the “hERG current change (%, negative = inhibition) at 1uM” value was -23.2%. For `Cc1cc(C(F)(F)F)nc(-n2cc(-c3ccccc3)nn2)n1`, the “hERG current change (%, negative = inhibition) at 1uM” value was -1.75%. `[Br-].c1ccc(C[n+]2ccc3ccccc3c2)cc1` was tested, and the “hERG current change (%, negative = inhibition) at 1uM” value was 11.1%.
